PubChem BioAssay AID624417 (National Center for Advancing Translational Sciences (NCATS), 2012)
Values joined by “and” are separate entries in the source; they are usually repeats but may differ in a detail not shown here. Equal entries are not always repeated. About 6,400 (1.6%) of roughly 410,000 compounds were called active. The inconclusive results got no clear call from the source; some entries with a clear call stand among them for comparison. Calls follow the shape of the dose curve; as a rule, active = well fitted inhibition curve with a large enough effect; inconclusive = small, poorly fitted or top-dose-only effect; inactive = no such curve, though single readings can be large or run the other way. Potencies beside an inconclusive call are fits to weak or partial responses and may not hold up.

Molecular target: Glucagon-like peptide 1 receptor (Homo sapiens) (UniProt P43220)
Assay: qHTS of GLP-1 Receptor Inverse Agonists (Inhibition Mode); also: nearly all actives have a fitted effect of over 55% in size
Conditions: HEK293 GLP-1R CRE-luciferase, luminescence, 24 h, GLP-1R form is constitutively active; activity change, negative = inhibition: at 38.3 µM (top of the series) unless noted
Method in brief: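 Inverse agonists were sought by their lowering of basal cAMP reporter luciferase output in HEK293 cells stably carrying constitutively active human GLP-1R, after 24 h compound treatment.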
% is scaled to controls: 0 for no effect and ±100 for the full control effect; potency is read from the fitted curve at half-maximal effect; tags tell the direction and shape of the fitted curve.

Sequence of UniProt P43220 (P43220 whole entry, looked up): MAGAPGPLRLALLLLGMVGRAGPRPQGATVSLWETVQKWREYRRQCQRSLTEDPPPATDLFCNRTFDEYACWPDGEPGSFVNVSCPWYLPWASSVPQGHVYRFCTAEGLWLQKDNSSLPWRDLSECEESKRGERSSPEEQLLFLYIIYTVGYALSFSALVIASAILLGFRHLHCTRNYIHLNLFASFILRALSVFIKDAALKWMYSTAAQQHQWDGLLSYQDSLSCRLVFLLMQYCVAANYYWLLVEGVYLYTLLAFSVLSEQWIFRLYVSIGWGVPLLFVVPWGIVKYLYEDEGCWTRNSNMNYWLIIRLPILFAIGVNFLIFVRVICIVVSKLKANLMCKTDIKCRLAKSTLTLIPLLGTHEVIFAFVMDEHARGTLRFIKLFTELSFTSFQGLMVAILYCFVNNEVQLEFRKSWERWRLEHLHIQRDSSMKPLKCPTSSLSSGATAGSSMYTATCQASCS

| Compound | activity change, negative = inhibition | Potency |
| --- | --- | --- |
| CCOC(=O)C(NC(C)=O)(Nc1ccc(S(=O)(=O)Nc2cc(C)on2)cc1)C(F)(F)F (stereo not drawn) | inactive: 7.95% | – |
| N#Cc1cccc(NC(=S)Nc2ccccc2)c1 | inactive: 7.78% | – |
| Cc1cccc(-n2nnnc2SCC(=O)Nc2ccc(N3CCN(C)CC3)cc2)c1 | – | inconclusive: 3.98 µM [inhibitor, partial curve, poor fit] |
| CCCn1c(NCc2cccc(OC)c2OC)nc2ccccc21 | – | inconclusive: 28.2 µM [inhibitor, single point] |
| COc1cc(S(=O)(=O)N(C)C2CCCCC2)c(C)cc1C | – | inconclusive: 8.91 µM [inhibitor, partial curve, poor fit] |
| O=C(Nc1ccccc1)c1nc[nH]c1C(=O)O | inactive: -5.48% | – |
| Cc1cc(C)c2c(CC(=O)N(Cc3ccc(Cl)cc3)Cc3ccco3)coc2c1 | – | inconclusive: 5.62 µM [inhibitor, partial curve, poor fit] |
| COc1cccc(NC(=O)C(OC(=O)c2ccccc2NS(=O)(=O)c2cccs2)c2ccccc2)c1 (stereo not drawn) | – | inconclusive: 31.6 µM [inhibitor, single point] |
| CCOC(=O)CSc1nc2cc3c(cc2c(=O)n1Cc1ccc(C(=O)NCCc2ccc(OC)c(OC)c2)cc1)OCO3 | inactive: 11.7% | – |
| O=C1c2cccc(OCC(=O)N3CCCc4ccccc43)c2CCN1Cc1cccnc1 | inactive: -14.8% | – |
| O=C(CN1C(=O)CSc2ccc(S(=O)(=O)N3CCCC3)cc21)Nc1cccc(Cl)c1 | – | inconclusive: 10 µM [inhibitor, partial curve] |
| Cc1cccc(C(=O)Nc2ccc(NC(=O)c3ccccc3)cc2)c1 | – | inconclusive: 11.2 µM [inhibitor, partial curve, poor fit] |
| CSc1ccc(CN2CCC2(C)C(=O)NC2CCN(Cc3ccccc3)CC2)cc1 (stereo not drawn) | – | inconclusive: 28.2 µM [inhibitor, single point] |
| COc1ccc(C2=C(C=O)Cc3ccccc3O2)cc1 | – | inconclusive: 20 µM [inhibitor, single point] |
| O=C(NCCc1ccc(Cl)cc1)c1cc(S(=O)(=O)N2CCCCC2)c[nH]1 | – | inconclusive: 22.4 µM [inhibitor, partial curve, poor fit] |
| CC(=O)Nc1cc(-c2cccc(NS(C)(=O)=O)c2)cn2c(-c3ccc(F)c(Cl)c3)cnc12 | – | inconclusive: 28.2 µM [inhibitor, single point] |
| CN1CCCN(C(=O)Cc2c(Cl)cccc2Cl)c2nc3ccccc3nc21 | – | inconclusive: 11.2 µM [inhibitor, partial curve, poor fit] |
| Cc1cccc(CNC(=O)Cn2ccc3cc(S(=O)(=O)N4CCCCCC4)ccc32)c1 | – | inconclusive: 7.94 µM [inhibitor, partial curve, poor fit] |
| C(=C\c1ccccc1)/CN1CCN(C(c2cccs2)c2nnnn2-c2ccc3c(c2)OCCO3)CC1 (stereo not drawn) | – | inconclusive: 28.2 µM [inhibitor, single point] |
| CCOc1ccccc1N1CCN(C(=O)c2ccccc2SCC(=O)N2CCCC2)CC1 | inactive: -17% | – |
| Nc1cc(-c2ccc(Br)cc2)[nH]n1 | – | inconclusive: 28.2 µM [inhibitor, single point] |

| Compound | activity change, negative = inhibition | Potency |
| --- | --- | --- |
| CCCCNC(=S)Nc1ccc(SC(F)F)cc1 | – | inconclusive: 10 µM [inhibitor, partial curve, poor fit] |
| Cc1cc2ccccc2cc1C(=O)c1ccccc1 | – | inconclusive: 25.1 µM [inhibitor, partial curve, poor fit] |
| Cc1ccc2[nH]c(C)c(CCNC(=O)C3CCCCC3C(=O)OCC(F)(F)F)c2c1 (stereo not drawn) | – | inconclusive: 3.16 µM [inhibitor, partial curve, poor fit] |
| CCCc1cc(=O)oc2cc(C)c3c(-c4ccccc4)coc3c12 | – | inconclusive: 28.2 µM [inhibitor, single point] |
| CCOc1ccc(C2CC(=O)c3c([nH]c(C(=O)OCC4CCCCC4)c3C)C2)cc1 (stereo not drawn) | inactive: -5.26% | – |
| Cc1ccc(S(=O)(=O)C(CNC(=O)C(=O)NCCc2ccccc2)c2cccs2)cc1 (stereo not drawn) | inactive: -11.8% | – |
| O=C(NCCc1cccc(Cl)c1)C1CCC(=O)N(Cc2ccc(Cl)cc2)C1 (stereo not drawn) | – | inconclusive: 10 µM [inhibitor, partial curve] |
| S=C(Nc1ccc(Nc2ccccc2)cc1)Nc1ccccn1 | – | active: 2.24 µM |
| O=C(Nc1ccn(C2CCC(CO)O2)c(=O)n1)c1ccccc1 (stereo not drawn) | inactive: 19.6% | – |
| Cc1ccc(NS(=O)(=O)c2ccc3c(c2)NC(=O)CO3)cc1C | – | inconclusive: 28.2 µM [inhibitor, single point] |
| Cc1ccc(NC(=O)/C=C\C(=O)N(c2ccc(C(C)C)cc2)C(C(=O)NCc2ccco2)c2ccc(F)cc2)cc1 (stereo not drawn) | – | inconclusive: 10 µM [inhibitor, single point] |
| COc1cccc(Cn2cnc(-c3ccccc3OC)c2-c2cccs2)c1 | – | inconclusive: 31.6 µM [inhibitor, single point] |
| CCOc1ccccc1NC(=O)CSc1nccn1-c1cccc(C)c1 | – | inconclusive: 14.1 µM [inhibitor, single point] |
| CCOC(=O)CCCCCC(=O)Nc1ccc2c(c1)C(=O)N([C@H](C)CO)C[C@H](C)[C@@H](CN(C)C(=O)Nc1ccccc1)OCCCC[C@@H](C)O2 | – | inconclusive: 11.2 µM [inhibitor, partial curve, poor fit] |
| CCOc1ccc(-n2c(=O)c3c(C)c(C)sc3n(CC(=O)NCCc3ccccc3)c2=O)cc1 | inactive: -5.02% | – |
| CCOc1ccc(NC(=O)c2cc(S(=O)(=O)NC3CCCCCC3)ccc2F)cc1 | – | inconclusive: 10 µM [inhibitor, partial curve, poor fit] |
| CCOc1ncccc1C(=O)N1CCN(c2cc(Cl)ccc2C)CC1 | – | active: 1 µM |
| CS(=O)(=O)Nc1cccc(NC(=O)c2cccc3c(-c4cccnc4)coc23)c1 | – | inconclusive: 28.2 µM [inhibitor, single point] |
| C=CCNC(=O)c1onc(CSc2ccc(F)c(F)c2)c1C(=O)O | – | inconclusive: 22.4 µM [inhibitor, single point] |
| O=C(CCCCCNc1nc(=S)[nH]c2ccccc12)NCCc1c[nH]c2ccccc12 | – | inconclusive: 15.8 µM [inhibitor, single point] |
| COc1ccc2c(c1)CCc1c(C(=O)Nc3c(C)nn(Cc4ccccc4)c3C)noc1-2 | – | inconclusive: 3.55 µM [inhibitor, full curve, poor fit] |

| Compound | activity change, negative = inhibition | Potency |
| --- | --- | --- |
| Cc1ccccc1-c1noc(-c2ccc(NCc3ccco3)c([N+](=O)[O-])c2)n1 | inactive: 10.2% | – |
| Cc1ccccc1CC1(CO)CCCN(C(=O)CCC(=O)c2ccccc2)C1 (stereo not drawn) | – | inconclusive: 10 µM [inhibitor, partial curve, poor fit] |
| O=C(NCCc1cccs1)C1CC(c2cccc(F)c2)=NO1 (stereo not drawn) | inactive: 2.46% | – |
| Cc1cc2c([nH]c3ccccc32)c2c1OC(C)(C)C=C2 | – | inconclusive: 28.2 µM [inhibitor, single point] |
| COc1cc(/C=N/n2c(C)n[nH]c2=S)ccc1OCc1ccc(F)cc1 | inactive: 5.65% | – |
| c1ccc(C2Oc3ccccc3C3CC(c4cccs4)=NN32)cc1 (stereo not drawn) | – | inconclusive: 28.2 µM [inhibitor, single point] |
| O=C(COc1ccccc1)N1CCN=C1SCc1cccnc1 | – | inconclusive: 31.6 µM [inhibitor, single point] |
| c1ccc(C(c2ccccc2)N2CCN(Cc3nc(-c4cnccn4)no3)CC2)cc1 | – | inconclusive: 12.6 µM [inhibitor, single point] |
| CCOC(=O)c1sc(NC(=O)CCc2ccccc2)nc1C | inactive: -27.2% | – |
| Cc1ccc(Nc2c(C(C)C)c(C)c(C#N)c3nc4ccccc4n23)cc1 | – | inconclusive: 28.2 µM [inhibitor, single point] |
| O=C(Oc1ccc(/C=N/Nc2ccccc2)cc1)c1ccccc1 | – | inconclusive: 12.6 µM [inhibitor, single point] |
| CN(C)S(=O)(=O)Oc1ccsc1C(=O)Nc1cccc(Cl)c1Cl | – | inconclusive: 10 µM [inhibitor, partial curve, poor fit] |
| CN(C)CC/C=C1\c2cc(F)ccc2CSc2ccccc21 | – | inconclusive: 11.2 µM [inhibitor, partial curve, poor fit] |
| CCCCCCCN(C(=O)CCl)c1cccc(C)c1 | – | inconclusive: 20 µM [inhibitor, single point] |
| O=C(C/C=N\OCc1ccc([N+](=O)[O-])cc1)Nc1ccc(Cl)cc1 | – | inconclusive: 11.2 µM [inhibitor, partial curve, poor fit] |
| Cc1ccc(NC(=O)N2CCC(C(=O)c3ccc(F)cc3)CC2)cc1 | – | inconclusive: 10 µM [inhibitor, partial curve, poor fit] |
| CCN1C(=O)[C@H]2[C@@H](c3ccc(-c4ccc5c(c4)OCO5)c(OC)c3)N[C@@](CC(C)C)(C(=O)OC)[C@H]2C1=O | – | inconclusive: 3.55 µM [inhibitor, full curve] |
| CCOc1ccccc1CNC(=O)CCCn1ccc2cc(S(=O)(=O)N3CCCC3)ccc21 | – | inconclusive: 28.2 µM [inhibitor, single point] and inconclusive: 11.2 µM [inhibitor, single point] |
| O=[N+]([O-])c1ccccc1-c1cc(-c2ccccc2O)n[nH]1 | – | inconclusive: 12.6 µM [inhibitor, single point] |
| CC(C)c1nc2cc(C(=O)N(C)Cc3ccc(F)cc3)ccc2o1 | – | inconclusive: 10 µM [inhibitor, single point] |
| O=C(O)c1ccc(NC(=O)c2cc(S(=O)(=O)N3CCCCC3)c(Cl)cc2Cl)cc1 | inactive: 5.82% | – |
